Reference: PubChem BioAssay AID493208 (National Center for Advancing Translational Sciences (NCATS), 2011)
Screen size: about 44,000 compounds; about 340 (0.77%) were called active. Another 5% or so got no clear call; they are omitted. Calls come from the whole dose curve; as a rule, active = well fitted inhibition curve with a large enough effect; inconclusive = small, poorly fitted or top-dose-only effect; inactive = flat fitted curve, though single readings scatter. Some of the results follow.

assay: Acumen qHTS Assay for Inhibitors of the mTORC1 Signaling Pathway in MEF (Tsc2-/-, p53-/-) Cells: Sytravon; conditions: phospho-rpS6 immunofluorescence/PI, 24 h; series mostly up to 38.3 µM; activity change, negative = inhibition: at the top concentration;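 note: plate controls were DMSO for no effect and rapamycin for full effect; nearly all actives have a fitted effect of over 50% in size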
Procedure, shortened: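 Compounds act on Tsc2-/-, p53-/- fibroblasts carrying an empty vector for 24 h before fixation and dual staining for phospho-S6 and DNA (propidium iodide). Values are percentages of cells above a rapamycin-defined pS6/PI threshold.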

SMILES	activity change, negative = inhibition
CCOc1ccc(-c2nnc(SCC(=O)NCc3ccccc3Cl)o2)cc1	inactive: 3.73%
CCCN1C(=O)c2[nH]nc(-c3ccccc3)c2C1c1cccc(O)c1 (centres undefined)	inactive: -11.2%
Cc1ccc(NC(=O)c2oc3ccccc3c2NC(=O)Cc2ccccc2)cc1	inactive: -2.45%
CCOc1ccc(S(=O)(=O)N2CCN(c3cccc(C(F)(F)F)c3)CC2)cc1OCC	inactive: -4.05%
COc1ccccc1NC(=O)CSC1=Nc2ccccc2C2=NC(Cc3ccccc3)C(=O)N12 (centres undefined)	inactive: 6.16%
CCc1nc2c(cnn2-c2ccc(C)cc2)c(=O)n1Cc1ccccc1	inactive: 0.952%
Cc1cc(C)c(S(=O)(=O)NCC(c2ccco2)N2CCOCC2)c(C)c1 (centres undefined)	inactive: 3.82%
CCOC(=O)N1CCc2c(sc3c2c(=O)n(Cc2ccccc2)c(=O)n3Cc2cccc(C)c2)C1	inactive: -1%
CCc1ccc(NC(=O)Cn2c(=O)n(CCCCC(=O)NCc3ccccc3Cl)c(=O)c3ccccc32)cc1	inactive: 2.64%
COc1ccc(NC(=O)c2cc(C)nc3c2c(C)nn3-c2ccc(C)cc2)cc1OC	inactive: 1.09%
COc1ccccc1-c1nnc(C2CCN(C(=O)c3cccc(C)c3)CC2)o1	inactive: 4.3%
COc1cccc(Cn2c(=O)n(-c3cccc(Cl)c3)c(=O)c3c4c(sc32)CN(C(C)=O)CC4)c1	inactive: -1.71%
C=CCC(CC=C)(CNC(=O)C(=O)Nc1ccc(C)cc1)c1ccccc1	inactive: -4.7%
CCOc1ccc(NC(=O)CN2CCN(S(=O)(=O)c3ccc(OC)cc3)CC2)cc1	inactive: -5.76%
CCOc1cc(OCC)cc(C(=O)Nc2cccc(-c3nc4ccccc4[nH]3)c2)c1	inactive: -21.2%
CCn1c(=O)cc(OCC(=O)NCc2ccccc2OC)c2ccccc21	inactive: -17.4%
Cc1c2cnn(CC(=O)N3CCN(c4ccccc4)CC3)c(=O)c2c(C)n1Cc1ccccc1Cl	inactive: -6.36%
CCCCN(C)CCCNC(=O)C1CCN(S(=O)(=O)CC)CC1	inactive: 5.84%
CSc1ncc(Cl)c(C(=O)Nc2ccc(S(=O)(=O)Nc3nccc(C)n3)cc2)n1	inactive: 4.79%
CC(=O)c1ccc(NC(=O)CCc2c(C)nc3c(c2C)c(=O)n(C)c(=O)n3C)cc1	inactive: -0.286%
CC(=O)C1=C(c2ccccc2)N(C(C)=O)n2c(nnc2C2CCCCC2)S1	inactive: -22.1%
CCCCN(C)CCCNC(=O)CN1N=C(c2ccc(OC)cc2)CCC1=O	inactive: 0.311%
Cc1ccc(CCNC(=O)c2ccc3[nH]c(C)c(C)c3c2)cc1	inactive: -1.63%
Cc1cc(C)cc(-n2cnc3cc(C(=O)NC4CCCCCC4)ccc32)c1	inactive: 2.16%

SMILES	activity change, negative = inhibition
O=C(NCc1ccccc1F)c1sc2ncccc2c1-n1cccc1	inactive: 1.2%
CCn1cc2nc(SCC(=O)Nc3ccc(C)cc3)n(Cc3ccc(C)cc3)c(=O)c2n1	inactive: -4.94%
CCN(CC)c1ccc(NC(=O)CN2CCN(c3ccccc3F)CC2)cc1	inactive: 0%
Cc1[nH]c2ccc(Br)cc2c1CCNC(=O)c1cc2ccccc2oc1=O	inactive: -16%
CCOc1ccc(C2=NC(c3cccs3)=Nc3ccc(CC)cc3N2)cc1OCC	inactive: -10.1%
O=S(=O)(NCCS(=O)(=O)N1CCN(c2cccc(Cl)c2)CC1)c1ccc(F)cc1	inactive: 2.1%
CC(=O)N1CCCc2cc(S(=O)(=O)N3CCCC(C(=O)Nc4ccc(C)cc4C)C3)ccc21 (centres undefined)	inactive: -0.0922%
COc1ccc(-n2nc3cc(C)c(NC(=O)c4ccc(-c5ccc(Br)cc5)o4)cc3n2)cc1	inactive: -0.38%
COc1cc(OC)cc(C(=O)Nc2cc3c(cc2N2CCOCC2)n(C)c(=O)n3C)c1	inactive: -19.3%
Cc1cc(C)n(CCc2nc3c4ccccc4nc(N4CCN(c5cccc(C)c5C)CC4)n3n2)n1	inactive: -0.153%
Cc1cccc(NC(=O)CN2C(=O)C(c3ccccc3)=NC23CCC(C)CC3)c1 (centres undefined)	inactive: -2.38%
CC(=O)c1cccc(-n2c(=O)c3c4c(sc3n(Cc3cccc(C)c3)c2=O)CN(C(C)=O)CC4)c1	inactive: -0.271%
CCOc1ccccc1CNC(=O)CCc1c(C)nn(-c2ccc(N3CCCC3)nn2)c1C	inactive: 7.15%
Cc1ccc(/C=C(\C#N)c2nc(-c3ccc(-c4ccccc4)cc3)cs2)cc1	inactive: -6.17%
CCOC(=O)c1cccc(NC(=O)CCS(=O)(=O)c2ccc3c(c2)CC(=O)N3C)c1	inactive: -6.6%
Cc1ccc(S(=O)(=O)C2(C(=O)Nc3ccc(Cl)c(C(F)(F)F)c3)CC2)cc1	inactive: 2.24%
CC(C)c1ccc(NC(=O)Cn2c(=O)n(CC3CCC(C(=O)NCCc4ccccc4)CC3)c(=O)c3ccccc32)cc1 (centres undefined)	inactive: -20.6%
COC(=O)c1ccc(Cl)cc1NC(=O)NCCc1c(C)nn(C)c1C	inactive: 0%
Cc1c(C(=O)N2CCOCC2)oc2c1-c1nn(CC(=O)NCc3cccc(F)c3)cc1CC2	inactive: -2.38%
Cc1ccc(-n2c(=O)c3cccnc3n2CC(=O)Nc2cc(C)cc(C)c2)cc1	inactive: -0.0454%
COc1ccccc1CNC(=O)Cn1c(=O)nc(-c2ccccc2F)c2cc(Cl)ccc21	inactive: 0%
COc1ccc(-n2ccnc2SCC(=O)Nc2ccc3c(c2)OCO3)cc1	inactive: -11%
CCOC(=O)c1c(C)[nH]c(C)c1S(=O)(=O)N1CCC(C(=O)Nc2cc(C)ccn2)CC1	inactive: -0.454%
Cc1ccc(Cl)cc1N1CCN(C(=O)C2CCC(CNS(=O)(=O)c3cccs3)CC2)CC1 (centres undefined)	inactive: -2.9%

SMILES	activity change, negative = inhibition
Cc1cccc(N2CCN(C(=O)CS(=O)(=O)c3cccc4nsnc34)CC2)c1C	inactive: -0.351%
Cc1ccc(CNc2ccc(-c3nc(-c4ccncc4)no3)cc2[N+](=O)[O-])cc1	inactive: 0.323%
Cc1ccc(-c2nc(S(=O)(=O)c3ccccc3)c(N3CCN(c4ccccc4)CC3)o2)cc1	inactive: 1.3%
Cc1ccc2nc(COc3ccccc3NC(=O)COc3ccc(F)cc3)cc(=O)n2c1	inactive: -19.2%
CCc1ccccc1NS(=O)(=O)c1ccc2[nH]cc(C(=O)N(CC(C)C)CC(C)C)c(=O)c2c1	inactive: -5.67%
COc1ccccc1N1CCN(C(=O)c2cc(CC(C)C)on2)CC1	inactive: -25.6%
CCc1ccccc1N(CC)C(=O)c1c(C)oc2ncn(C)c(=O)c12	inactive: 3.28%
O=C(Nc1ccccc1C(=O)OCc1cc(=O)n2c3c(sc2n1)CCCC3)c1ccc(F)cc1	inactive: 15.5%
COc1ccc(NC(=O)C2CCN(S(=O)(=O)c3ccc4c(c3)CCCC(=O)N4)CC2)cc1OC	inactive: -1.37%
Cc1cccc(C(C)C)c1NC(=O)Cn1c(=O)oc2cc(S(=O)(=O)N3CCCC3)ccc21	inactive: -19.1%
CCc1ccc2nc(N(CCN(CC)CC)C(=O)c3cccs3)sc2c1	inactive: -7.02%
COc1cccc(C(=O)Nc2nc3nc(-c4ccccc4)cc(=O)n3[nH]2)c1	inactive: 5.57%
O=C1c2oc3ccccc3c(=O)c2C(c2cccc(O)c2)N1c1nncs1 (centres undefined)	inactive: -18.8%
O=C(Cn1c(=O)nc(-c2ccccc2)c2ccccc21)NCCc1ccccc1	inactive: 2.78%
CCOC(=O)c1c(-c2ccc(C)cc2)csc1NC(=O)c1cc(=O)c2cc(C)ccc2o1	inactive: 0.927%
CC(=O)c1ccc(NC(=O)CN2C(=O)CN(C)C(=O)c3ccccc32)cc1	inactive: 4.02%
COc1cccc(CNC(=O)C2=C(C)C(=O)OC23CCN(C(C)=O)CC3)c1OC	inactive: -5.1%
COc1ccc(-c2oc3ncn4nc(COc5cccc(C)c5C)nc4c3c2-c2ccc(OC)cc2)cc1	inactive: -17.2%
COc1cc(Nc2nc(SCc3ccc(Cl)cc3)nc3ccccc23)cc(OC)c1	inactive: -4.59%
CCC(C(=O)NCc1cc(OC)ccc1OC)n1nc(C)c2sc3ccccc3c2c1=O (centres undefined)	inactive: -0.84%
CN(C)c1cccc(C(=O)N2CCC(c3c[nH]c4ccccc34)(c3c[nH]c4ccccc34)CC2)c1	inactive: -0.156%
Cc1cccc(CNC(=O)c2ccc(N3Cc4ccccc4Oc4ncccc43)s2)c1	inactive: -11.2%
COc1cccc(C(=O)N2CCC(C(=O)Nc3cccc(Cl)c3)CC2)c1	inactive: -25.3%
COc1cc(C(=O)Nc2ccc(NC(=O)c3ccc(C(C)(C)C)cc3)cc2)cc(OC)c1OC	inactive: 6.51%

SMILES	activity change, negative = inhibition
O=C(COCc1cc(-c2cccs2)on1)N1CCN(c2ccccc2)CC1	inactive: -6.71%
COc1ccccc1C(=O)Nc1ccc2nc(SCCOc3ccccc3C)sc2c1	inactive: -4.29%
CC(C)c1ccc(N2C(=O)CSC23C(=O)N(Cc2cccc(F)c2)c2ccccc23)cc1 (centres undefined)	inactive: -8.43%
COc1ccc(OC)c(CNC(=O)C2CCCN(c3ncnc4onc(-c5ccc(F)cc5)c34)C2)c1 (centres undefined)	inactive: -0.843%
Fc1ccc(NCc2nnc3n2CCCCC3)cc1Cl	inactive: 0.408%
O=C(Cn1c(=O)oc2cc(S(=O)(=O)NCc3ccccc3)ccc21)Nc1cccc(F)c1	inactive: -7.15%
COC(=O)c1ccc(C2Nc3c(C)cccc3-c3cc(C)nn32)cc1 (centres undefined)	inactive: 3.74%
COc1ccccc1CNc1nc2c(S(=O)(=O)c3ccc(C)c(C)c3)nnn2c2ccc(Cl)cc12	inactive: 0.396%
COc1ccc(NC(=O)C(NS(=O)(=O)c2cccc3nsnc23)C(C)C)cc1 (centres undefined)	inactive: -8.72%
COc1ccc(NC(=O)c2cc3ccccc3o2)c(OC)c1	inactive: -1.26%
O=C(c1ccc(F)cc1)c1cn(Cc2ccccc2)c2cc3c(cc2c1=O)OCO3	inactive: -14.6%
O=C(Nc1c(C(=O)N2CCN(c3ccccc3F)CC2)oc2ccccc12)c1cccc(F)c1	inactive: -10.9%
COc1ccc(C2=CC(c3cc(Br)ccc3F)n3c(nc4ccccc43)N2)cc1 (centres undefined)	inactive: -1.26%
Cc1oc(-c2ccc(C(=O)Nc3ccc(F)cc3)cc2)nc1COc1ccccc1	inactive: -0.391%
CC1CCCN(c2cc3c(cc2F)c(=O)c(S(=O)(=O)c2cccc(Cl)c2)cn3Cc2ccccc2)C1 (centres undefined)	inactive: -0.743%
O=C(COc1ccccc1Cl)Nc1ccc(-c2nc3ccccc3s2)cc1	inactive: -20.2%
COc1ccc(CCNC(=O)C(=O)NCC(c2ccco2)S(=O)(=O)c2ccc(C)cc2)cc1 (centres undefined)	inactive: -13.7%
CC(C)NC(=O)c1ccc(Cn2c(SCc3ccc(F)cc3)nc3cccnc32)cc1	inactive: -14.3%
O=C(CCn1c(=O)c2cccn2c2cccnc21)N1CCN(c2cccc(C(F)(F)F)c2)CC1	inactive: -6.73%
COc1ccc(OC)c(/C=C/c2nc3ccccc3c(=O)n2-c2ccc(F)c(Cl)c2)c1	inactive: 9.42%
Cc1ccc(NC(=O)C2CCCN(S(=O)(=O)c3c(C)n[nH]c3C)C2)c(C)c1 (centres undefined)	inactive: -9.92%
COc1ccc(C(=O)/C=C/c2cn(CC(O)CN3CCc4ccccc43)c3ccccc23)cc1OC (centres undefined)	inactive: -6.63%
